Test results from PubChem BioAssay (NCATS).
Inconclusive results, whose numbers are uncertain, are shown with a selection of clear calls. For some assays here: A potency beside an inconclusive call is a rough fit, not a confirmed value. Calls of active or inactive are those of the source. Calls come from the whole dose curve; as a rule, active = well fitted cell-killing curve with a large enough effect; inconclusive = small, poorly fitted or top-dose-only effect, or effect the other way; inactive = flat fitted curve, though single readings scatter.

Tests used:
Assay in all cases: Primary qHTS to identify gynecologic anti-cancer compounds using libraries of approved drugs and bioactive compounds (AID 1345084); note: nearly all actives have a fitted effect of over 55% in size
CASKI = conditions: Gynecologic cancer cell panel viability, ATPlite luminescence, 48 h; series mostly up to 57.5 µM
Method in brief: (§1)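 Cytotoxicity screen measuring ATP content by luciferase luminescence. Each compound is applied at five concentrations for 48 h at 37 C with 5% CO2.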

Es-2 = conditions: Gynecologic cancer cell panel viability, ATPlite luminescence, 48 h; series mostly up to 57.5 µM
Method in brief: as §1

SKOV3 = conditions: Gynecologic cancer cell panel viability, ATPlite luminescence, 48 h; series mostly up to 57.5 µM
Method in brief: as §1

Tov-21-G = conditions: Gynecologic cancer cell panel viability, ATPlite luminescence, 48 h; series mostly up to 57.5 µM
Method in brief: as §1

JEG-3 = conditions: Gynecologic cancer cell panel viability, ATPlite luminescence, 48 h; series mostly up to 57.5 µM
Method in brief: as §1

PA-1 = conditions: Gynecologic cancer cell panel viability, ATPlite luminescence, 48 h; series mostly up to 57.5 µM
Method in brief: as §1

HeLa = conditions: Gynecologic cancer cell panel viability, ATPlite luminescence, 48 h; series mostly up to 57.5 µM
Method in brief: as §1

Hek293T = conditions: Gynecologic cancer cell panel viability, ATPlite luminescence, 48 h, control line for the selectivity index; series mostly up to 57.5 µM
Method in brief: as §1

OV90 = conditions: Gynecologic cancer cell panel viability, ATPlite luminescence, 48 h; series mostly up to 57.5 µM
Method in brief: as §1

Tov112D = conditions: Gynecologic cancer cell panel viability, ATPlite luminescence, 48 h; series mostly up to 57.5 µM
Method in brief: as §1

Measured: Potency
Potency is the fitted concentration of half-maximal effect; tags give direction and shape of the fitted curve.

CCC[C@H]1C[C@H](C(=O)N[C@@H]([C@@H]2O[C@@H](SC)[C@@H](O)[C@@H](O)[C@@H]2O)[C@H](C)Cl)N(C)C1
inactive: CASKI | Es-2
inconclusive: SKOV3 = 2.82 µM [cytotoxic, partial curve, poor fit] | Tov-21-G 25.1 µM [cytotoxic, single point]

Cc1ccccc1C(=O)c1ccc(Nc2ccc(Br)cc2N)cc1Cl
inconclusive: CASKI 39.8 µM [cytotoxic, single point] | JEG-3 = 31.6 µM [cytotoxic, single point] | PA-1 = 39.8 µM [cytotoxic, single point]

Nc1ncnc2c1c(-c1cccc(OCc3ccccc3)c1)cn2C1CC(CN2CCCC2)C1 (stereo not drawn)
inconclusive: CASKI 39.8 µM [cytotoxic, single point] | HeLa 8.91 µM [cytotoxic, partial curve, poor fit] | Hek293T 28.2 µM [cytotoxic, single point] | JEG-3 = 39.8 µM [cytotoxic, single point] | OV90 = 25.1 µM [cytotoxic, partial curve, poor fit] | PA-1 = 39.8 µM [cytotoxic, partial curve, poor fit] | SKOV3 = 17.8 µM [cytotoxic, partial curve, poor fit] | Tov-21-G 22.4 µM [cytotoxic, single point]

Cc1cc(Nc2nc(N[C@@H](C)c3ccc(F)cc3)c(C#N)cc2F)n[nH]1
active: PA-1 = 7.08 µM
inconclusive: CASKI 0.708 µM [cytotoxic, full curve, poor fit] | Hek293T 8.91 µM [cytotoxic, partial curve, poor fit] | JEG-3 = 7.08 µM [rising, single point] | OV90 = 39.8 µM [cytotoxic, single point] | SKOV3 = 6.31 µM [cytotoxic, full curve] | Tov-21-G 15.8 µM [cytotoxic, partial curve, poor fit] | Tov112D 20 µM [cytotoxic, partial curve, poor fit]
